Whole data set: some 110,000 compounds, median “z-score” near -0.1, cut for the highest 2% near 2. Some of the results follow.
target: Metabotropic glutamate receptor 8 (Rattus norvegicus) (UniProt P70579); experiment: mGluR8 Gi/Go-coupled signaling modulation – cell-based, rat, thallium flux, HTS, primary screen (AID 488969); settings: HEK293 rat mGluR8, GIRK (G protein-gated inwardly rectifying potassium channel) thallium flux, FluoZin2; at 10 µM; stronger effect = higher value; submaximal glutamate (EC20) added with thallium
UniProt P70579, sequence (P70579 whole entry, looked up): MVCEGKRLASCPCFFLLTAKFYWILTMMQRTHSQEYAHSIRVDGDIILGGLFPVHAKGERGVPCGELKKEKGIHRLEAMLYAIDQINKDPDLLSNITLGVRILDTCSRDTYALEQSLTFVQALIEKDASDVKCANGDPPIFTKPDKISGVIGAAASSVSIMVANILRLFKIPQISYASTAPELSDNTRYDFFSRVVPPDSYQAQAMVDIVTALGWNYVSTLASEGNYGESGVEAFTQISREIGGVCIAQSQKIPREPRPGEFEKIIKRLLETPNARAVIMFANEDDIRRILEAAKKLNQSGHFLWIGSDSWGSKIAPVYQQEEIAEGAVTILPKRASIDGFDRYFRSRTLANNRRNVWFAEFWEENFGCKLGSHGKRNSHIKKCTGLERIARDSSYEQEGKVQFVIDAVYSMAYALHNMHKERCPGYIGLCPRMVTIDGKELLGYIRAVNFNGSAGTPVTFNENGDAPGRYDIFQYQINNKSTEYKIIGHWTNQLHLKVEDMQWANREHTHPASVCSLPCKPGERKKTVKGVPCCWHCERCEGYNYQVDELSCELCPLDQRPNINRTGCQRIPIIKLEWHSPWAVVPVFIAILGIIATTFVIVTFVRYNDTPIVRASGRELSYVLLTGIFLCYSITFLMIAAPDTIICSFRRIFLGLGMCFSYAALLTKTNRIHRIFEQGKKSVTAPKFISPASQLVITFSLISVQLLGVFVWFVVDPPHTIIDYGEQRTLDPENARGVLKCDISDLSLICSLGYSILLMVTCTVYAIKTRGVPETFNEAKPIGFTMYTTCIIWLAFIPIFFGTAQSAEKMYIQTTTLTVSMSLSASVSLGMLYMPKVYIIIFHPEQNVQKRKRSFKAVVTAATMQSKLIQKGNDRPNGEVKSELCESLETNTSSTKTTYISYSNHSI

| SMILES | z-score |
| --- | --- |
| C=CCOc1ccc(C2OC34CCCCC3C(C#N)(C#N)C2(C#N)C(=N)O4)cc1 (stereo unspecified) | -0.0615 |
| COC(C)(C)[C@]12CC(O)(C(C)C)ON1[C@H]1CCCCC1N2O (stereo partly specified) | 0.162 |
| O=C(COC(=O)c1ccc(-c2nnc(-c3ccccc3)o2)cc1)c1ccccc1 | -0.145 |
| CCOc1cc(NC(=O)c2cnccn2)c(OCC)cc1NC(=O)c1ccc(C)cc1 | 0.0296 |
| Cc1ccc(C(=O)Nc2sc3c(c2C#N)CCCCC3)cc1C | 0.0633 |
| COc1ccc(NC(=O)c2ccc(C#N)cc2)cc1NS(=O)(=O)c1ccc(F)cc1 | -0.0767 |
| CCC(C)n1nccc1NC(=O)C(C)OC(=O)c1cc2ccccc2[nH]1 (stereo unspecified) | 0.276 |
| Cc1ccc(CNC(=O)c2cc3c(C)nc4ccccc4c3o2)cc1 | 0.19 |
| COCCCNC(=S)NCCCNc1nc2cc3c(cc2cc1C#N)OCO3 | -0.155 |
| CCC(Oc1ccccc1)C(=O)Nc1ccsc1C(=O)OC (stereo unspecified) | -0.397 |
| CCCN1CCN(C(=O)CCCNC(=O)Cn2cnc3sc(C)c(C)c3c2=O)CC1 | 1.02 |
| CCOC(=O)N1CCC(N2CC34C=CC(O3)C(C(=O)Nc3ccc(OCC)cc3)C4C2=O)CC1 (stereo unspecified) | 1.09 |
| c1coc(-c2nnc(SCc3nc4ccccc4[nH]3)o2)c1 | -0.511 |
| Cc1cc(C)c(S(=O)(=O)N2CCN=C2c2ccccc2)cc1C | -0.209 |
| CCCCc1ccc(N=N/C(C(=O)Nc2cc(OC)c(NC(C)=O)cc2OC)=C(/C)O)cc1 | 0.28 |
| CC(C)SCCCCOc1ccc2ccccc2c1 | -0.0609 |

| SMILES | z-score |
| --- | --- |
| CCCc1ccc(C(C)NC(=O)c2cnccn2)cc1 (stereo unspecified) | 0.069 |
| CN(C(=O)CSc1nnnn1-c1ccccc1)C1CCCCC1 | -0.933 |
| Cn1c(SC/C=C/c2ccccc2)nnc1-c1cccs1 | -0.0461 |
| COC(=O)/C=C1/N/C(=N\c2nc(C)cc(C)n2)N(c2ccc(C)c(C)c2)C1=O | 0.00026 |
| O=C(CN1C2=NCCN2c2ccccc21)C12CC3CC(CC(C3)C1)C2 | 0.569 |
| O=C(Cn1cccc1)N1CCN(c2ccc(F)cc2)CC1 | -0.241 |
| Clc1ccccc1CSc1nnc(-c2ccncc2)o1 | 0.342 |
| CC1CCCCC1NC(=S)NC(=O)c1ccccc1Br (stereo unspecified) | 0.799 |
| COc1ccc(S(=O)(=O)N2CCN(C(=O)NC3CCCCC3)CC2)cc1OC | 0.142 |
| CCOC(=O)c1sc(NC(=S)NC(=O)c2cccc(Cl)c2)c(C(=O)OCC)c1C | 0.646 |
| Nc1c(Cl)cc(Cl)cc1C(=O)OCC(=O)N1CCCC1 | -0.308 |
| Cc1ccccc1NC1(C#N)C(=O)Nc2ccccc21 (stereo unspecified) | 0.00214 |
| CCOC(=O)c1c(NC(=O)/C=C/c2ccc3c(c2)OCO3)sc(C)c1CC | 0.00149 |
| COc1ccc2c(Cl)c(C(=O)NN)sc2c1 | 0.0612 |
| CCC(=O)Nc1ccc(S(=O)(=O)Nc2cccnc2)cc1 | 0.232 |

— PubChem BioAssay AID488969 (Vanderbilt High Throughput Screening Facility, 2010)
